# Read counts are not given, so values of variants with three or more changes are uncertain.
# B1: LINE1-mini (parent)
# chain: GGCAGAGCUCAACACAGCGUGGCAAAGUGGCUGUGGCUAGACUGCC
# Variants of: B1
# Test: self-cleavage, relative activity (ratio to wild type); higher = more cleavage; in vitro, sequencing; the parent is a self-cleaving ribozyme
row,Variant,self-cleavage
1,A4C A16U G29A,0.04
2,A4C G5C C10G,0.01
3,A4C C15A G29U,0.08
4,C3U G30U G40A C45U,0.02
5,A4C A6U A39C,0.1
6,A4C G7U A11C A14G G17U G22A G30U G36A,0.02
7,A4C A25C G33C A39U C45U,0.02
8,A4C C31U G44U C45A,0.02
9,A4C C8A A24C U34A,0.19
10,A4C A12U G27C G40U C42U,0.02
11,A4C A26U A39G,0.23
12,C3U U32A C45G,0.07
13,A4C C8G U20C U28C,0.04
14,A4C C15U G19U,0.03
15,A4C C23G G35A G36U A39C,0.26
16,A4C G17A C23G G35U,0.25
17,C3U U32A G35C C37G,0.03
18,A4C G5C A41U,0
19,A4C C15A G17C G21U C31G C42A,0.09
20,C3U G30A G36U,0.57
21,A4C G7C G30C,0.09
22,A4C C13A C23A G33C,0.04
23,A4C C37A C42U,0.26
24,A4C C15G A24G G27C G30U,0.01

row,Variant,self-cleavage
1,A4C A6C A14G C15A,0.03
2,A4C A6U G33U,0.01
3,A4C G5C A24U G29C G44U,0.08
4,C3U U20A G22A A25G C46A,0.14
5,A4C C8U U20C U28C G35U,0.12
6,C3U U28G C42G G44C,0.01
7,A4C G5A G27A C37U,0.04
8,A4C A24C G35C,0.03
9,C3U G30C C46A,0.11
10,A4C C13G C42G C46G,0.02
11,A4C C10A G36U G40U,0.02
12,A4C A12G G27U,0.06
13,A4C G5C A16G,0.09
14,A4C G7A C10A C18A A41C,0.07
15,A4C A14G U20C C31G C46G,0.03
16,C3U U28C C31A U38A,0.26
17,A4C C15G G19A A39G,0.03
18,A4C A12G U28G C45A,0.01
19,A4C A12C C15U,0.11
20,A4C C23U G35U C46A,3
21,A4C G5U C31A G40A C42U,0.08
22,A4C C8A C15A G22C G35U,0.37
23,C3U G29C U32A,0.32
24,A4C C15G A24C A26U A39U,0.02

row,Variant,self-cleavage
1,A4C A14C G21U A25U U32G,0.2
2,A4C C13U A41U,0.24
3,C3U U20G G30U,0.34
4,A4C G17C G30U C37U G40C,0.2
5,A4C C8G C18G U32A G35A,0.02
6,C3U U20A C31G U32A U34A,0.02
7,A4C G17A C37U,0.09
8,C3U G36A C37A,0.11
9,A4C C8G C46G,0.03
10,C3U G29U A39G,0.1
11,A4C C8G G36A G40U,0.2
12,A4C C10A A11C C15G C18G C37A,0.01
13,A4C A24U C45G,0.19
14,C3U U9C G22U C37G,0.06
15,A4C C13A G29C,0.13
16,C3U U38G G40A G44A,0.02
17,A4C C8A G22C G36C,0.84
18,C3U U34A U38G,0.01
19,C3U G35U C37U,0.03
20,A4C A12C G21C A24C G30A C46A,0
21,A4C C23A G36U U38A,0.03
22,A4C A11C G22A U32C,0.04
23,A4C G5A A24C,0
24,A4C G7U A12C C31A,0.01

row,Variant,self-cleavage
1,A4C A6G G40C,0.04
2,A4C C13U U32G,0.09
3,A4C A11G G22U A24U,0.02
4,C3U G33A G40A G44A,0.05
5,A4C C15A A26C G35A C46A,0.03
6,C3U U20G C46U,0.28
7,A4C C8A C46U,0.31
8,C3U G40A C42A,0.14
9,A4C C15U C37U,0.05
10,A4C C13U G17C,0.09
11,A4C A14G C45A C46G,0.05
12,C3U U9A G35A C45U,0.13
13,A4C G17A G29U,0.05
14,A4C G17C C31U C42G,0.01
15,C3U U9A C45G,0
16,A4C C8U C10G G17A C23G G35C,0.01
17,A4C A12G U34G,0
18,A4C C31U C37A U43A G44C,0
19,C3U U9G C18U G33U,0.05
20,A4C A26C A41C C42U,0.21
21,A4C C13G A14G C18A A24G G35C U43A,0.01
22,A4C C31A C46U,0.01
23,A4C A12G G35U,0.03
24,A4C A12C A26C,0.02

row,Variant,self-cleavage
1,A4C A11U G33C C37G,0.02
2,A4C C8A A14U A16G C45U,0.13
3,C3U G29U U32C G40U U43A,0.06
4,A4C A16C C45G,0.05
5,C3U G36C C37U,0.01
6,A4C A26G C46A,0.05
7,A4C C8U C18U G22C G27C U34G C37U C45A,0.03
8,A4C C18U G27U C42U C46A,0.38
9,A4C C10A U28G U32G,0.02
10,A4C C10G C15G C18U G19C U38G,0.01
11,A4C C10A G33C C46G,0.01
12,A4C C10A U43G C45G,0.01
13,A4C G5U A16C C23U G35A,0.08
14,A4C G5A G22A,0.05
15,A4C A12U U34A,0.06
16,A4C A12U G33U,0.12
17,A4C G5U C15A G17U A39G,0.02
18,A4C C37U A41C C42A,0.05
19,A4C G5U A16G U43C G44U,0.02
20,A4C C10U G27A C42G,0.07
21,A4C G7A C23U G29U G30U G35A G44U,0.39
22,A4C A11C G17U C37U,0
23,A4C A6G A14G,0.01
24,A4C A6G C18G U43C,0.02

row,Variant,self-cleavage
1,C3U U28G A39U,0.07
2,A4C C13A G21U C31A G36U G40A,0.23
3,C3U G30C G33A,0.07
4,A4C G5U C10A A12G,0
5,C3U G40U G44C,0
6,A4C A12U G30U G44A,0.04
7,C3U U20G G27A,0.28
8,A4C A12U G44U,0.06
9,A4C A11C C15U G35A,0.02
10,A4C C8A C18G,0.2
11,C3U U9G U28C A41G,0.06
12,A4C C10U A12U A26U,0.04
13,A4C C8U G22C C42A,0.01
14,A4C G17A G30C C37A,0.04
15,C3U G40C A41U C42U,0.05
16,A4C G7C C13U G30U C37A,0.33
17,A4C C15G G21A G27C,0.07
18,A4C A14C C23U,0.1
19,C3U U9A U28G C42U,0.09
20,C3U U38G G40A,0
21,A4C A6C G17U U34G G35U,0.2
22,A4C A16G U20A,0.03
23,A4C G7A G35C G36C,0.02
24,A4C A11U A14U,0.01

row,Variant,self-cleavage
1,A4C C8U G29C G33U A41C,0.04
2,A4C C8G C10U A26U G44C,0.11
3,A4C A11C C23U A25U A41U,0.01
4,A4C C8A G22U C23G G27A C42G,0.55
5,C3U U20G A25G C37U C46U,0.01
6,A4C G7A A41C G44C,0.19
7,C3U G40U C45A C46U,0.15
8,A4C G5A G29U,0.06
9,A4C C13A G21C,0.05
10,A4C A12C A39U,0.07
11,A4C A25C G29C G40C,0.02
12,A4C C18A U20G,0.08
13,A4C A14U G33C,0.02
14,C3U U9G C15G G19U,0.05
15,A4C G7C A39U,1.52
16,A4C C10U A26G G33U G44U,0.03
17,A4C A16G C31A,0.1
18,A4C C15U A41C C46U,0.01
19,A4C C8U A11G G19A,0.01
20,A4C C45A C46U,0.1
21,C3U U20C A39U,0.11
22,A4C G5U C18A G27C G30A U43C,0.07
23,A4C G7C A26C G30A G44A,0.24
